The whole screen tested about 280,000 compounds, of which about 1,100 (0.39%) were called active. The shares of active, inactive and inconclusive entries below differ from those in the screen. Calls follow the shape of the dose curve; as a rule, active = well fitted inhibition curve with a large enough effect; inconclusive = small, poorly fitted or top-dose-only effect, or effect the other way; inactive = flat fitted curve, though single readings scatter. Potencies of inconclusive entries are left out as doubtful fits.
Each molecule was assayed against Microtubule-associated protein tau (Homo sapiens) (UniProt P10636) (assay: qHTS for Inhibitors of Tau Fibril Formation, Fluorescence Polarization). Settings: K18 P301L tau heparin fibrillization, Alexa594 FP, 6 h; series mostly up to 57.7 µM; activity, negative = inhibition: at the top concentration.
Sequence of UniProt P10636 (P10636 whole entry, looked up, the tested form may be a part): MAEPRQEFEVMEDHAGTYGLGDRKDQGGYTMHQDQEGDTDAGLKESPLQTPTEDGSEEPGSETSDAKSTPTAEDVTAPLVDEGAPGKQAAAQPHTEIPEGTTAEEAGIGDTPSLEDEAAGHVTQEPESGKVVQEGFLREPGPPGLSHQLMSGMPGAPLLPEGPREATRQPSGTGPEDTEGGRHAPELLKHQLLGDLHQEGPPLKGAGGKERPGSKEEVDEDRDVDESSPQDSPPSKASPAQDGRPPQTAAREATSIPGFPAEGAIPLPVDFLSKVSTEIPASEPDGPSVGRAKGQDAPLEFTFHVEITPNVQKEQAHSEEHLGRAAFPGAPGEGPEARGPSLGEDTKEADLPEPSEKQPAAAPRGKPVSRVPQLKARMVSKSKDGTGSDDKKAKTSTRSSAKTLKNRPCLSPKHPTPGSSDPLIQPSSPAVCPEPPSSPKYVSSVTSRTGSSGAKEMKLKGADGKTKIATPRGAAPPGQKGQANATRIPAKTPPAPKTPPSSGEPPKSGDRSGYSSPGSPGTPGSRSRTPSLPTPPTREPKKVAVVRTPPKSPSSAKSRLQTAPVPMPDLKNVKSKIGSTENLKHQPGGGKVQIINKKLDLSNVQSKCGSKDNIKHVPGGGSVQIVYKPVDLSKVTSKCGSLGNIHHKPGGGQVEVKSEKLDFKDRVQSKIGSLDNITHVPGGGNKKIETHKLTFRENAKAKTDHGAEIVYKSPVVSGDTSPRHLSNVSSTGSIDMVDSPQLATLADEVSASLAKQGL
Procedure, shortened: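 Human K18 P301L fragment (15 uM unlabeled plus 0.24 uM Alexa 594-labeled) in 100 mM sodium acetate pH 7 with compound, aggregation induced by 20 uM heparin for 6 hr at 37 C. ThT (30 uM) added for 1 hr, then Alexa 594 FP read.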
% is scaled to controls: 0 for no effect and ±100 for the full control effect; potency is read from the fitted curve at half-maximal effect; tags tell the direction and shape of the fitted curve.
Also: nearly all actives have a fitted effect of over 55% in size.

Compound | Potency | activity, negative = inhibition
O=c1c2cccc(Cl)c2nc2n1Cc1ccccc1-2 | inconclusive [inhibitor, partial curve] | 
COc1cc(NC(=O)CN2CCN(c3ccc(F)cc3)CC2)cc(OC)c1 |  | inactive: 3.92%
O=C(Oc1nsnc1N1CCOCC1)c1ccccc1 | inconclusive [inhibitor, single point] | 
COc1cc(C(C2=C(O)CC(C)(C)CC2=O)C2C(=O)CC(C)(C)CC2=O)cc(OC)c1OC (configuration not stated) | inconclusive [inhibitor, full curve] | 
CC(C)(C)c1nc2ccccc2c(=O)n1N1C(=O)c2ccccc2C1=O | inconclusive [inhibitor, single point] | 
CN(C)c1ccnc(N(Cc2ccccc2)Cc2ccccc2)c1C#N |  | inactive: 6.5%
CC1=CC2=NC(=O)/C(=C\c3ccc(-c4cccc(Cl)c4)o3)C(=N)N2O1 |  | inactive: 5.21%
COc1ccc(/C=N/NC(=O)CN(c2ccc(OC)cc2)S(=O)(=O)c2ccccc2)cc1 | inconclusive [inhibitor, single point] | 
O=c1cc(-c2ccccc2Cl)c2c([nH]1)CCC2 | inconclusive [activator, full curve, poor fit] | 
COc1ccc(CSCC(=O)Nc2ccc(S(=O)(=O)N3CCCCCC3)cc2)cc1 | inconclusive [inhibitor, partial curve] | 
CCCCOc1ccc(CNC(=O)c2ccc3c(c2)N(C)C(=O)C2CCCCN32)cc1 (configuration not stated) | inconclusive [activator, partial curve] | 
O=C1Cc2ccccc2C(=O)N1Cc1ccccc1 |  | inactive: 0.0104%
N#CC(C#N)=C/C(C#N)=C(/N)N1CCN(c2ccc(Cl)cc2)CC1 | inconclusive [inhibitor, single point] | 
Cc1cc(C)c2c(n1)sc1c(=O)n(-c3ccccc3C(F)(F)F)nnc12 |  | inactive: -9.02%
COCCOC(=O)c1[nH]c2c(c1C)C(=O)CC(c1ccco1)C2 (configuration not stated) |  | inactive: -1.22%
Cc1ccc(NC(=O)C2C3/C=C\CCCCC32)cc1 (configuration not stated) |  | inactive: 4.02%
Cc1ccc(S(=O)(=O)Cn2nnnc2C(C(C)C)N2CCc3ccccc3C2)cc1 (configuration not stated) | inconclusive [inhibitor, single point] | 
CSc1nc2ccc(NC(=O)c3ccc(Cl)s3)cc2s1 | inconclusive [inhibitor, partial curve] | 
Oc1nc(Nc2ccc(Cl)cc2Cl)sc1/C=C1\C=Nc2ccccc21 |  | inactive: 8.78%
CC1CN(C(=O)N2CCC(C(=O)NCCCc3ccccc3)CC2)c2ccccc2O1 (configuration not stated) | inconclusive [inhibitor, single point] | 
Cc1ccccc1NC(=O)c1nc[nH]c1C(=O)NCc1ccccc1 | inconclusive [inhibitor, partial curve] | 
Cc1ccccc1N1C(=O)CC(N(O)c2ccccc2)C1=O (configuration not stated) |  | inactive: -5.78%
CCCOc1ccc(N)cc1N | active: 7.08 µM | 
CCCCCn1c(CCNC(=O)c2cccc(C)c2)nc2ccccc21 |  | inactive: 1.23%

Compound | Potency | activity, negative = inhibition
Cc1sc(NC(=O)c2ccco2)c(CN2CCN(Cc3ccccc3)CC2)c1C |  | inactive: -4.04%
Cc1cccc(NC(=O)c2sc3nc(N)c(C#N)cc3c2N)c1 | inconclusive [activator, partial curve, poor fit] | 
Cc1nc2ccc(N=NN(C)C)cc2[nH]1 | inconclusive [inhibitor, partial curve] | 
Cc1ccc(/C=C/c2onc(C)c2S(=O)(=O)N2CCC(C(=O)Nc3ccc(Br)c(C)c3)CC2)cc1 | inconclusive [inhibitor, single point] | 
O=C(CO/N=C/c1cccc([N+](=O)[O-])c1)Nc1ccc2ccccc2c1 |  | inactive: -5.51%
Cc1cccc(C2=NN(c3ccc(Br)cc3)[C@@H](C(=O)N3CCOC3=O)[C@@H]2c2ccccc2)c1 |  | inactive: 2.79%
Cc1ccc(-c2ccc(/C=N/NC(=O)CN3CCOCC3)o2)cc1[N+](=O)[O-] | inconclusive [inhibitor, full curve] | 
Cc1ccc(/C=C/C(=O)NCCc2c[nH]c3ccccc23)o1 |  | inactive: -3.43%
Cc1ccc(S(=O)(=O)c2cn(CC(=O)Nc3cccc(C)c3)c3cc4c(cc3c2=O)OCO4)cc1 | inconclusive [inhibitor, single point] | 
Cc1[nH]nc(-c2ccc(OCc3cnn(-c4ccccc4)c3)cc2O)c1Oc1ccc(F)cc1 | inconclusive [inhibitor, partial curve] | 
CCCOc1ccc(C2C(=O)N(C3CCC(C)CC3)CC(=O)N2Cc2cccc(OC)c2)cc1OC (configuration not stated) |  | inactive: 3.61%
CCCOC(=O)c1ccc(NC(=O)c2cc(=O)[nH]c3ccccc23)cc1 | inconclusive [inhibitor, single point] | 
CCC(=O)OC1(C)C(=O)C=C2C=C(c3ccsc3)OC=C2C1=O (configuration not stated) | inactive | 
CCn1cc(C(=O)NCCCOC)c(=O)c2cc(S(=O)(=O)N3CCc4ccccc4C3)ccc21 |  | inactive: 5.23%
COC1=CC(=O)C(C(=O)c2ccccc2)=CC1=O | active: 10 µM | 
CCCSc1nc(-c2ccccc2)[nH]c1S(=O)(=O)c1ccc(C)cc1 | inconclusive [inhibitor, single point] | 
CCN(CC)S(=O)(=O)c1cccc(NC(=O)c2ccc(-n3nc(C)cc3C)cc2)c1 | inconclusive [inhibitor, partial curve] | 
COc1ccccc1C(=O)N/C(=C\c1ccccc1)C(=O)NC(C)C(=O)O (configuration not stated) |  | inactive: 7.07% [at 2.34 µM]
CCc1cc(-c2n[nH]c(C)c2Oc2ccc(C(C)C)cc2)c(O)cc1O | inconclusive [inhibitor, single point] | 
c1ccc(OCCN2C3=NCCN3c3ccccc32)cc1 |  | inactive: 7.41%
C=C1C[C@]23C[C@@]1(O)CC[C@H]2[C@@]12C=C[C@H](O)C(C)(C(=O)O1)[C@H]2[C@@H]3CC(=O)O |  | inactive: -4.03%
CC1=C(c2ccc(C)cc2)S(=O)(=O)N(Cc2ccc(C(=O)Nc3ccc(C)c(F)c3)cc2)C1=O | inconclusive [inhibitor, partial curve] | 
O=C(CSc1nc(-c2ccco2)cc(C(F)(F)F)n1)N1CCN(Cc2ccccc2)CC1 |  | inactive: 4.76%

— PubChem BioAssay AID1468 (National Center for Advancing Translational Sciences (NCATS), 2008)
